Source: PubChem BioAssay AID1963576 (National Center for Advancing Translational Sciences (NCATS), 2024)
Among all 46,000 compounds or so, about 60 (0.1%) were called active. Another 3% or so got no clear call; they are omitted. Calls come from the whole dose curve; as a rule, active = well fitted inhibition curve with a large enough effect; inconclusive = small, poorly fitted or top-dose-only effect; inactive = no such curve, though single readings can be large or run the other way. This is one part of the list.

Test: Primary qHTS assay for Inhibitors of ovarian cancer metastasis using an organotypic tumor microenvironment (TME) model.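 For activity change, negative = inhibition: plate controls were DMSO wells for no effect and tomatine positive control wells for full effect.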 Note: nearly all actives have a fitted effect of over 65% in size.
Conditions: SKOV3ip1-GFP adhesion/invasion on 3D omental model, fluorescence; series mostly up to 45.8 µM; activity change, negative = inhibition: at the top concentration
Summary of the method: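 Primary human omental fibroblast/mesothelial 3D culture pre-formed 48 h. SKOV3ip1-GFP cells added with compounds (0.36-46 umol/L), incubated 2 h RT/16 h 37 C, fixed; GFP cells quantified at 488/509 nm.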

Activity change, negative = inhibition, inactive:
Cc1ccc(-c2nnc3c4ccccc4c(C)nn23)cc1NC(=O)c1cccc(Br)c1 -5.91%
Cc1ccc(Cl)cc1N(C)C(=O)C1CCCN(c2ncnc3onc(-c4ccc(F)cc4)c23)C1 (configuration not stated) -1.87%
Cc1ccc(Cn2c(CCNC(=O)C(C)C)nc3ccccc32)cc1 -5.64%
CCOC(=O)CCc1c(C)nc2c(c(C)nn2-c2ccc(C)cc2)c1C 44.3%
O=C(Cn1nc(-c2ccc(Cl)cc2)ccc1=O)NCCc1ccccc1 -8.24%
COCCn1c(C)cc(O)c(C(c2ccc(F)cc2)N2CCC(C)CC2)c1=O (configuration not stated) 5.03%
COc1ccc(-n2nc3c(N4CCCC(C(=O)NCCc5ccccc5C)C4)nnc(C)c3c2C)cc1 (configuration not stated) -24.2%
COc1ccc(-n2c(=O)c3ccc(C(=O)NCc4ccc(C)cc4)cc3n(Cc3ccc(Cl)cc3)c2=O)cc1 5.85%
Cc1cccc(CSc2ncccc2C(=O)O)c1 -4.99%
CC1=C(C(=O)OC2CCCC2)C(c2ccccc2C(F)(F)F)CC(=O)N1 (configuration not stated) -1.77%
COc1cccc(NC(=O)Cn2c(=O)n(-c3ccccc3)c(=O)c3c2c2cc(OC)ccc2n3C)c1 -26.2%
Cc1ccc(CNC(=O)CN2N=C(c3ccccc3)CCC2=O)cc1 0.71%
CC(=O)c1ccc(N2CCN(c3ncnc4c3cnn4-c3cc(Cl)ccc3C)CC2)cc1 6.42%
Cn1c(C(=O)Nc2ccc(OC(F)(F)F)cc2)cc2c(=O)n3ccccc3nc21 0.383%
COc1ccccc1CNC(=O)c1nnn(CC(=O)Nc2c(C)cccc2C)c1N -9.04%
Cc1ccccc1OCC(=O)OCc1cc(=O)n2nc(-c3cccs3)sc2n1 1.76%
Cc1ccc(OCC(=O)Nc2cccc(C(=O)OCc3cc(=O)n4c(C)csc4n3)c2)cc1 14.8%
CCOc1ccccc1NC(=O)c1c(NC(=O)Cc2ccc(OC)cc2)sc2c1CCC2 -8.07%
CCc1cccc(NC(=O)c2ccc3c(c2)c(C)c(C)n3Cc2ccc(F)cc2)c1 6.95%
Cc1ccc(CN2COc3c(Cl)cc4c(-c5ccccc5)cc(=O)oc4c3C2)cc1 -3.32%
CNC(=O)c1ccc2c(C(=Nc3cccc(CN(C)C)c3)c3ccccc3)c(O)[nH]c2c1 2.42%
Cc1ccc(NC(=O)COc2ccc3oc4c(c3c2)CCCC4)cc1C -8.6%
O=C(Nc1cc(Cl)cc(Cl)c1)c1ccc(F)c(S(=O)(=O)N2CCN(c3ccccc3F)CC2)c1 -8.9%
Cc1cc(NC(=O)C2CCCN(S(=O)(=O)c3cccc4nsnc34)C2)ccc1Br (configuration not stated) 5.14%
CCOc1ccc(NC(=O)N2CCC(N3CCCCC3)CC2)cc1 -2.41%
COc1cc(-c2nc3ccc(Cl)cn3c2Nc2ccc3c(c2)OCCO3)ccc1O -1.76%
Cc1cccc(CSc2nnc3[nH]c(=O)cc(-c4ccccc4)n23)c1 -3.97%
COC(=O)C1CCN(c2csc3ccc(Cl)cc3c2=O)CC1 -7.27%
O=C(NCCCO)c1nn(-c2ccc(Cl)cc2)nc1CO -2.79%
CCC[C@H](N[C@@H](C)C(=O)N1[C@@H]2CCCC[C@H]2C[C@H]1C(=O)O)C(=O)OCC -13.5%
CCc1cccc(NC(=O)c2c(C)oc3nc(C)nc(N4CCCC4)c23)c1 6.54%
Cc1ccc(NC(=O)C(=O)NCC2(c3ccccc3)CCCC2)cc1C -3.09%
CCc1ccc(NCc2cc3ccc(OC)cc3n(CC(=O)Nc3ccc(C)c(Cl)c3)c2=O)cc1 4.08%
CC(C)[C@H](CO)Nc1nc(Nc2ccc(C(=O)O)c(Cl)c2)c2ncn(C(C)C)c2n1 31.7%
COc1ccc(C(=O)N(Cc2cc(OC)c(OC)c(OC)c2)C2CCS(=O)(=O)C2)cc1Cl (configuration not stated) 4.86%
COc1cccc(NC(=O)Cn2c(=O)n(CCc3ccc(OC)c(OC)c3)c(=O)c3ccccc32)c1 17.8%
COc1cc(OC)c(OC)cc1CNCCCSc1nnnn1C 1.68%
CCOc1ccc2oc(=O)cc(CN3CCN(c4ccccc4OC)CC3)c2c1 -6.99%
COc1ccc(-c2ccc(=O)n(CC(=O)Nc3ccc(OC)c(OC)c3)n2)cc1 4.15%
CC(C)c1ccc(CNc2n[nH]c(-c3ccco3)n2)cc1 -9.55%
COc1ccc(C2c3c(n(C)c4ccccc34)C(=O)N2CC(=O)Nc2ccc(F)cc2)cc1 (configuration not stated) -4.59%
CCC(=O)N1CCc2cc(OC)c(OC)cc2C1COc1ccc2c(C)cc(=O)oc2c1 (configuration not stated) 9.33%
CC(C)Oc1ccc(CNC(=O)Cn2nc(N3CCN(c4ccccc4)CC3)ccc2=O)cc1 -6.89%
Cn1cc(S(=O)(=O)N2CCOCC2)cc1C(=O)Nc1cccc(C#N)c1 -12.4%
O=C1N(Cc2ccccc2)c2ccccc2C1(O)c1c[nH]c2ccccc12 (configuration not stated) -19.8%
Cc1ccc(NC(=O)C2CCCN2S(=O)(=O)c2ccc3c(c2)n(C)c(=O)c(=O)n3C)cc1C (configuration not stated) 0.735%
Cn1c(=O)c2c(SCC(=O)N3CCc4ccccc43)nc(-c3ccc(Cl)cc3)nc2n(C)c1=O 2.74%
CCn1nnc2cc(C(=O)Nc3ccc(Br)cc3F)ccc21 -5.83%
CCOC(=O)c1c(S(=O)(=O)N2CCC(C(=O)N3CCN(c4ccc(F)cc4)CC3)CC2)c(C)n(C)c1C -0.939%
Cn1ncc2c(NCc3ccc(F)cc3)ncnc21 -3.56%
O=C(NCCCN1CCN(c2ccccc2F)CC1)c1ccc2nc(N3CCCCC3)sc2c1 -27%
CC(=O)c1ccc(NC(=O)COCc2cc(-c3ccc(F)cc3)on2)cc1 9.43%
Cc1c(CCNC(=O)C(C)(C)C)sc2nc(-c3ccc(F)cc3)nn12 -19.5%
COc1cccc(NS(=O)(=O)c2ccc3[nH]cc(C(=O)N4CCCC4)c(=O)c3c2)c1 1.14%
Cc1cc2c(cc3c(SCc4ccccc4Cl)nnc(C)n32)o1 9.45%
CCN(C(=O)C1CCCN(c2ncnc3c2nc2n3CCCCC2)C1)c1cccc(Cl)c1 (configuration not stated) -3.81%
COc1cc(NC(=O)Cn2nc3c(cc2=O)CC(C)CC3)cc(OC)c1OC (configuration not stated) 4%
COc1cc(OC)c(N(C)C(=O)c2sc3nc4n(c(=O)c3c2C)CCCCC4)cc1Cl -1.95%
COc1ccc(OCC(=O)Nc2ccc(-c3nc4cc(C)c(C)cc4o3)cc2)cc1 -9.36%
COc1ccc2[nH]cc(CCN=C(NC(=O)c3ccccc3C)Nc3nc(C)cc(C)n3)c2c1 5.97%
Cc1c(C(=O)N2CCC(C)CC2)c(S(=O)(=O)Nc2ccc(OC(F)(F)F)cc2)c(C)n1C -6.92%
Cc1ccccc1C(C(=O)NC1CCCCC1)N(C(=O)CNc1ccc(C#N)cc1)c1cccc(F)c1 (configuration not stated) 0.402%
N#Cc1c[nH]n2c(NC3CCCC3)c(-c3ccc(Cl)cc3)nc12 -3.61%
O=C(Cn1ncc2c3ccccc3n(Cc3ccc(F)cc3)c2c1=O)NCCCN1CCCCC1 -1.34%
CCOc1ccccc1NC(=O)N1CCC2(CC1)Oc1ccccc1C(=O)N2Cc1ccccc1F 16.5%
O=C(CCS(=O)(=O)c1cccc2nonc12)Nc1ccc(Br)cc1 0.451%
Cc1ccc(CNc2nc3ccc(C)cc3n3nnnc23)cc1 1.79%
CCc1ccc(NC(=O)C(=O)NCCc2sc3nc(-c4ccc(OC)cc4)nn3c2C)cc1 -33.6%
O=c1[nH]c(SCc2ccc([N+](=O)[O-])cc2)nc2c1CCCC2 2.87%
COc1ccc(Cl)cc1NC(=O)CCn1c(=O)oc2ccccc21 -8.83%
Cc1ccc(CNC(=O)Cn2cccc2C(=O)c2ccccc2C)cc1 8.54%
O=C(CSc1nnc(COc2ccccc2)o1)Nc1cc(C(F)(F)F)ccc1Cl 0.173%
O=C(CSc1nccn1Cc1ccccc1)Nc1ccc2c(c1)OCCO2 -4.94%

outcome, inactive:
COc1ccc(CNC(=O)CCNS(=O)(=O)c2ccc3c(c2)CCCC(=O)N3)cc1
COc1ccc(-c2nc(SCC(=O)NCc3ccccc3Cl)n[nH]2)cc1
O=C(C1CCC1)N1CCc2cc(S(=O)(=O)NCCc3ccccc3)ccc21
Cc1nn(-c2ccc(N3CCCC3)nn2)c(C)c1CCC(=O)N1CCN(c2ccccc2F)CC1
CCOc1ccccc1NC(=O)Cn1c(=O)n(C(C)C)c(=O)c2oc3ccccc3c21
O=S(=O)(c1ccc(-c2cnc(C3CC3)o2)cc1)N1CCN(c2ccccc2)CC1
Cc1ccc(N(CC(=O)Nc2ccc(C)c(Cl)c2)S(=O)(=O)c2cccs2)cc1
O=C(c1ccc2c(c1)N(Cc1ccc(Cl)cc1)C(=O)c1ccccc1S2(=O)=O)N1CCN(c2ccccn2)CC1
CCCOc1ccc(CNC(=O)CN2C(=O)c3cccnc3Oc3ccc(C)cc32)cc1
O=C(CN1C(=O)COc2ccc(S(=O)(=O)N3CCOCC3)cc21)N1CCN(c2ccccc2F)CC1
CCc1ccc(OCc2cc(=O)n3cc(C)sc3n2)cc1
Cc1ccc(C(=O)c2oc3ccccc3c2NC(=O)Cc2ccccc2)cc1
CC(=O)Nc1cccc(C(=O)NCc2ccc3c(c2)CCN3C(=O)c2ccc(F)cc2)c1
O=C(Nc1ccc(C(F)(F)F)cc1)C(Cc1ccccc1)n1cccc1 (configuration not stated)
Cc1cc(NC(=O)c2ccc(NC(=O)CCS(=O)(=O)c3cccs3)cc2)ccc1Br
Cc1cc(Nc2cc(F)ccc2C)nc(-n2nc(C)cc2C)n1
CN(C)S(=O)(=O)N(CC(=O)NCCSc1ccccc1)c1ccccc1
CC(C)N(Cc1ccccc1)C(=O)CN1C(=O)CSc2ccc(S(=O)(=O)N3CCCC3)cc21
CC1=C(C(=O)Nc2ccccc2)C(c2ccc(O)cc2)n2nc(SCc3ccccc3)nc2N1 (configuration not stated)
Cc1ccc(NS(=O)(=O)c2ccc(-c3cc(C)no3)cc2)c(Br)c1
Cc1ccc(CCNC(=O)c2c(C)nn(-c3ccc(F)cc3)c2-n2cccc2)cc1
Cc1ccccc1NC(=O)CSc1ccc(-c2cccs2)nn1
Cc1ccc(NC(=O)c2c(NC(=O)C(F)(F)F)sc3c2CCCCC3)cc1
COc1ccc(NC(=O)c2cc(C3CC3)nc3c2c(C)nn3-c2ccccc2)cc1OC
